This note sets out measurements from the antibiotic and cytotoxicity screens of Wong et al. (2023).

Some of the results follow.

One test deals with HSkMC. Put plainly: cytotoxicity call (relative viability < 0.9). The note with it: 10 µM.
The next test concerns S. aureus RN4220. Put plainly: growth inhibition call (relative growth <= 0.2). Particulars: 50 µM.

In the case of `NCc1ccccc1-c1ccco1`, the cytotoxicity call with HSkMC was “inactive”. For the same compound, in the test with S. aureus RN4220, the growth inhibition call is “inactive”.

With `C[C@@H]1CCCCO[C@@H](CN(C)C(=O)NC2CCCCC2)[C@H](C)CN([C@@H](C)CO)C(=O)c2cc(NC(=O)c3ccncc3)ccc2O1`, the cytotoxicity call in the test on HSkMC was “inactive”. The growth inhibition call in the test on S. aureus RN4220 was “inactive”.

Turning to `C[C@@H]1CCCCO[C@H](CN(C)Cc2ccc3c(c2)OCO3)[C@H](C)CN([C@H](C)CO)C(=O)c2cc(NS(=O)(=O)c3ccccc3)ccc2O1`, the cytotoxicity call in the test with HSkMC was “inactive”. Also, the growth inhibition call with S. aureus RN4220 was “inactive”.

Take `CC(=O)N1[C@H](CNC(=O)CN2CCOCC2)[C@@H](c2ccccc2)[C@@H]1CO`: the cytotoxicity call with HSkMC is “inactive”. Besides, the growth inhibition call in the test with S. aureus RN4220 was “inactive”.

Take `C=CCOC(=O)[C@H]1[C@@H]2C(=O)O[C@@H](c3ccccc3)[C@@H](c3ccccc3)N2[C@@H](c2ccc(OCCOC(=O)[C@H]3C[C@H]4C(=O)N[C@@H](Cc5ccccc5)C(=O)N4[C@H]3c3ccc(O)cc3)cc2)[C@]12C(=O)Nc1ccccc12`: the cytotoxicity call with HSkMC is “inactive”. Also, the growth inhibition call in the test with S. aureus RN4220 is “inactive”.

`C[C@H](CO)N1C[C@H](C)[C@@H](CN(C)S(=O)(=O)c2ccc(Cl)cc2)Oc2ccc(NS(C)(=O)=O)cc2C1=O`: in the test on HSkMC, the cytotoxicity call was “inactive”. In the test on S. aureus RN4220, the growth inhibition call is “inactive”.

`O=C(C[C@H]1CC[C@@H]2[C@H](COC[C@H](O)CN2S(=O)(=O)c2ccccc2)O1)N1CCOCC1`: in the test with HSkMC, the cytotoxicity call was “inactive”. Moreover, in the test with S. aureus RN4220, the growth inhibition call is “inactive”.

With `C=CCC[C@H](Cc1ccc(F)cc1)C(=O)OC[C@@H](NC(=O)[C@@H](CC=C)CC(=O)N[C@H](CO)Cc1ccccc1)C(C)(C)C`, the cytotoxicity call in the test on HSkMC was “inactive”. Besides, the growth inhibition call in the test on S. aureus RN4220 is “inactive”.

`C[C@@H]1CCCCO[C@@H](CN(C)C(=O)Cc2ccccc2)[C@@H](C)CN([C@@H](C)CO)C(=O)c2cc(NS(=O)(=O)c3ccc(Cl)cc3)ccc2O1`: the cytotoxicity call in the test with HSkMC is “inactive”. Besides, the growth inhibition call in the test on S. aureus RN4220 was “inactive”.

Take `CC(C)N1C[C@@H](CNCc2ccc(Oc3ccccc3)cc2)Oc2c(NC(=O)c3ccncc3)cccc2C1=O`: the cytotoxicity call in the test on HSkMC is “inactive”. The growth inhibition call with S. aureus RN4220 is “inactive”.

On to `C[C@@H]1CCCCO[C@H](CN(C)C(=O)C2CCCCC2)[C@H](C)CN([C@@H](C)CO)C(=O)c2cc(NC(=O)Nc3ccc(F)cc3)ccc2O1`, for which the cytotoxicity call in the test with HSkMC is “inactive”. Besides, the growth inhibition call in the test on S. aureus RN4220 was “inactive”.

With `COc1ccc(S(=O)(=O)N(C)C[C@@H]2Oc3ncc(C#CC4(O)CCCC4)cc3C(=O)N([C@@H](C)CO)C[C@@H]2C)cc1`, in the test with HSkMC, the cytotoxicity call is “inactive”. Moreover, in the test on S. aureus RN4220, the growth inhibition call is “inactive”.

Turning to `COCCN1C[C@H]2CN(Cc3nccn3C)C[C@H]2C1=O`, the cytotoxicity call in the test on HSkMC is “inactive”. The growth inhibition call with S. aureus RN4220 was “inactive”.

Take `C[C@@H]1CN([C@@H](C)CO)C(=O)Cc2cc(NS(=O)(=O)c3ccc(F)cc3)ccc2O[C@@H]1CN(C)S(=O)(=O)c1ccc(F)cc1`: the cytotoxicity call with HSkMC is “inactive”. For the same compound, the growth inhibition call in the test with S. aureus RN4220 is “inactive”.

`C[C@@H]1CN([C@@H](C)CO)C(=O)c2cc(C#C[C@@H](C)O)cnc2O[C@H]1CN(C)Cc1cncnc1`: the cytotoxicity call with HSkMC was “inactive”. Moreover, the growth inhibition call in the test with S. aureus RN4220 is “inactive”.

On to `CC1(O)CCC(C(C)(C)O)CC1.O` (stereo unspecified), for which the cytotoxicity call in the test on HSkMC is “inactive”. For the same compound, the growth inhibition call in the test with S. aureus RN4220 is “inactive”.

In the case of `C=c1ccccc1=C1NN=C(CN2CCCC2)O1`, the cytotoxicity call in the test on HSkMC was “inactive”. The growth inhibition call with S. aureus RN4220 is “inactive”.

For `Cc1noc(C)c1S(=O)(=O)N(C)C[C@H]1Oc2ccc(NC(=O)NC(C)C)cc2CC(=O)N([C@@H](C)CO)C[C@@H]1C`, the cytotoxicity call with HSkMC was “inactive”. The growth inhibition call with S. aureus RN4220 is “inactive”.

Regarding `CNC(=O)[C@H]1Cc2ccccc2N1C(=O)COC`, in the test on HSkMC, the cytotoxicity call was “inactive”. In the test with S. aureus RN4220, the growth inhibition call is “inactive”.

On to `COc1ccccc1C#Cc1cnc2c(c1)C(=O)N([C@@H](C)CO)C[C@@H](C)[C@H](CN(C)C(=O)c1ccc3c(c1)OCO3)O2`, for which, in the test with HSkMC, the cytotoxicity call was “inactive”. Further, in the test on S. aureus RN4220, the growth inhibition call is “inactive”.

In the case of `CO[C@H]1CN(C)C(=O)c2cc(NS(=O)(=O)c3ccccc3)ccc2OC[C@H](C)N(C(=O)NC(C)C)C[C@@H]1C`, the cytotoxicity call in the test with HSkMC is “inactive”. In the test with S. aureus RN4220, the growth inhibition call is “inactive”.

On to `O=C(C[C@H]1C=C[C@@H](NS(=O)(=O)c2ccccc2)[C@H](CO)O1)NCc1ccncn1`, for which the cytotoxicity call with HSkMC was “inactive”. Further, in the test with S. aureus RN4220, the growth inhibition call was “inactive”.

With `C[C@@H]1CN([C@H](C)CO)C(=O)c2cccc(NS(=O)(=O)c3cn(C)cn3)c2O[C@@H]1CN(C)C(=O)Nc1ccc2c(c1)OCO2`, the cytotoxicity call in the test with HSkMC was “inactive”. Moreover, the growth inhibition call in the test on S. aureus RN4220 is “inactive”.

Consider `CC(=O)N[C@@H]1[C@@H](Oc2ccc(C(C)=O)cc2)O[C@H](CO)[C@H](O)[C@@H]1O`, for which the cytotoxicity call in the test with HSkMC was “inactive”. Besides, in the test with S. aureus RN4220, the growth inhibition call was “inactive”.

For `N#CN=C1NC(=O)CC(=O)N1`, the cytotoxicity call in the test on HSkMC is “inactive”. Besides, in the test on S. aureus RN4220, the growth inhibition call was “inactive”.

For the compound `CN1CCN(C(=O)C[C@H]2CC[C@@H]3[C@H](COC[C@H](O)CN3C(=O)C3CCOCC3)O2)CC1`, in the test with HSkMC, the cytotoxicity call was “inactive”. Also, the growth inhibition call in the test on S. aureus RN4220 is “inactive”.

Turning to `C[C@@H]1CCCCO[C@@H](CN(C)S(C)(=O)=O)[C@@H](C)CN([C@@H](C)CO)C(=O)c2cc(N(C)C)ccc2O1`, in the test on HSkMC (human skeletal muscle cells), the cytotoxicity call was “inactive”. The growth inhibition call in the test with S. aureus RN4220 is “inactive”.

As for `COc1ccc(NC(=O)N(C)C[C@@H]2OCCCC[C@@H](C)Oc3ccc(NC(=O)CCC(F)(F)F)cc3C(=O)N([C@@H](C)CO)C[C@H]2C)cc1`, the cytotoxicity call with HSkMC was “inactive”. The growth inhibition call in the test with S. aureus RN4220 was “inactive”.
